Results reported in PubChem BioAssay AID651820 (National Center for Advancing Translational Sciences (NCATS), 2012).
About 12,000 (3.5%) of roughly 340,000 compounds were called active. The inconclusive results got no clear call from the source; some entries with a clear call stand among them for comparison. Calls follow the shape of the dose curve; as a rule, active = well fitted inhibition curve with a large enough effect; inconclusive = small, poorly fitted or top-dose-only effect, or another doubt; inactive = no such curve, though single readings can be large or run the other way. No potency is given beside an inconclusive call; the fits are too rough.
% is scaled to controls: 0 for no effect and ±100 for the full control effect; potency is read from the fitted curve at half-maximal effect; tags tell the direction and shape of the fitted curve.

Assay: qHTS Assay for Inhibitors of Hepatitis C Virus (HCV)
Details: Huh7.5.1 HCVcc-Cre (HCVcc is cell-culture hepatitis C virus) infection, luciferase reporter, 44 h; activity change, negative = inhibition: at 41.8 µM (top of the series) unless noted
In short: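 Cells seeded at 1,000/well and cultured 4 h, then compounds added followed by HCVcc-Cre virus (~0.5 moi). After 44 h further culture, luciferase substrate was added, plates held 15 min at room temperature, and luminescence read for 15 sec.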
For `CN1CC[C@]23c4c5ccc(O)c4OC2C(O)C=CC3[C@H]1C5` (some centres not stated), the Potency was inconclusive [inhibitor, single point].
With `COc1ccc(OCCCC(=O)Nc2cc(Cl)ccc2-n2cncn2)cc1` the Potency was inconclusive [inhibitor, partial curve].
In the case of `COc1ccc(CNc2cccc3[nH]c(C(F)(F)F)nc23)cc1OC`, the Potency is reported as active: 5.62 µM.
In the case of `N#CC1=C(N)Oc2c(ccc3cccnc23)C1c1cccnc1` (configuration not stated), the Potency is reported as active: 3.55 µM.
With `Cc1ccc(-n2ncc3c(=O)n(-c4ccc(C)c(C)c4)c(-c4ccco4)nc32)cc1` the Potency was active: 3.98 µM.
For `CCOc1ccc(C(=O)CCC(=O)N2CCN(c3ccc(O)cc3)CC2)cc1`, the “activity change, negative = inhibition” value was inactive: 15.2%.
For `CCc1ccc(N2C(=O)NC(=O)/C(=C\C=C\c3ccco3)C2=O)cc1`, the Potency was inconclusive [inhibitor, single point].
With `O=C(c1cccc([N+](=O)[O-])c1)N1CCN(c2cccc(Cl)c2)CC1` the Potency was inconclusive [inhibitor, full curve, poor fit].
In the case of `O=C(Nc1cccc(S(=O)(=O)N2CCCCC2)c1)c1c2c(nc3ccccc13)CCN(Cc1ccccc1)C2`, the Potency is reported as inconclusive [inhibitor, single point].
In the case of `COc1ccc2nc(NC(=O)CCn3cccc3)sc2c1`, the “activity change, negative = inhibition” value is reported as inactive: 5.83%.
In the case of `CCN(CC)CCNC(=O)C12CC3CC(C)(CC(C)(C3)C1)C2`, the Potency is reported as inconclusive [inhibitor, full curve].
In the case of `CCC(C)NCC(=O)Nc1ccc([N+](=O)[O-])cc1C(=O)Nc1ccccc1F` (configuration not stated), the Potency is reported as inconclusive [inhibitor, single point].
In the case of `CC1(C(=O)N/N=C/c2ccccc2)CC1(Cl)Cl` (configuration not stated), the “activity change, negative = inhibition” value is reported as inactive: 11%.
In the case of `O=c1oc(CCCO)cc2ccc(C#CC3(O)CCCCC3)cc12`, the Potency is reported as inconclusive [inhibitor, single point].
For `CCN(C[C@H]1N[C@@](CC)(C(=O)OC)[C@H]2C(=O)N(Cc3ccccc3)C(=O)[C@@H]12)C(=O)NC(C)C`, the Potency was active: 6.31 µM.
In the case of `O=S(=O)(c1ccc2c(c1)OCCO2)N1CCC(n2nnc3cc(F)ccc32)CC1`, the Potency is reported as inconclusive [inhibitor, partial curve].
With `COc1ccc(N2CCN(C(=O)CCC(=O)c3cc(C)sc3C)CC2)cc1` the Potency was inconclusive [inhibitor, single point].
With `O=C(CSc1nnnn1-c1ccccc1)Nc1nsc(-c2ccc(Cl)cc2)n1` the Potency was inconclusive [inhibitor, single point].
For `O=S(=O)(/C(=C\c1ccc(C(F)(F)F)cc1)c1nc2ccccc2[nH]1)c1ccccc1`, the Potency was active: 1.41 µM.
For `CC1(C)CC(=O)c2cnc(N3CCc4ccccc4C3)nc2C1`, the Potency was inconclusive [inhibitor, single point].
For `O=S(=O)(NC1CC1)c1ccc(S(=O)(=O)N2CCCC(c3nc(-c4cccnc4)no3)C2)cc1` (configuration not stated), the Potency was “inactive”.
With `CCn1c(NC(=O)c2cccc(Cn3cc(Cl)cn3)c2)nc2ccccc21` the Potency was active: 14.1 µM.
With `COc1cccc(C(=O)Nc2cccc3cccnc23)c1OC` the Potency was inconclusive [inhibitor, partial curve, poor fit].
For `Cc1ccc(OCCOc2ccc(Cl)cc2Cl)c([N+](=O)[O-])n1`, the Potency was inconclusive [inhibitor, single point].
With `Cn1c(=O)c2nncnc2n(C)c1=O` the Potency was “inactive”.
For `Cc1ccc(NC(=O)c2ccc(Cl)c(S(=O)(=O)N3CCCCCC3)c2)nc1`, the Potency was inconclusive [inhibitor, single point].
For `CN1CCN(C(=S)NC(=O)/C=C/c2ccccc2)CC1`, the “activity change, negative = inhibition” value was inactive: 12%.
For `CCOc1ccc(C(c2c(NC(=O)c3ccco3)sc(C)c2C)N2CCOCC2)cc1` (configuration not stated), the Potency was inconclusive [inhibitor, single point].
In the case of `CCOc1ccc(NS(=O)(=O)c2ccc(C(=O)N(C)CC(=O)Nc3ccc(OC)cc3)cc2)cc1`, the Potency is reported as inconclusive [inhibitor, single point].
For `COc1ccccc1OCCNC(=O)Nc1ccc(Br)cc1`, the Potency was inconclusive [inhibitor, partial curve].
With `CCOC(=O)c1ccc(NC(=O)c2c(NCc3ccccc3)[nH]c(=O)[nH]c2=O)cc1` the Potency was inconclusive [inhibitor, single point].
In the case of `CC(C)N(CCc1ccncc1)C(=S)Nc1cccc(Cl)c1`, the “activity change, negative = inhibition” value is reported as inactive: -2.54%.
With `COc1ccc(-c2ccc(=O)n(CC(=O)NCC3COCCO3)n2)cc1` (configuration not stated) the “activity change, negative = inhibition” value was inactive: 15.4%.
With `Cc1ccc(N=C2NC(=O)/C(=C/c3cn(C)c4ccccc34)S2)cc1C` the Potency was active: 12.6 µM.
In the case of `CC1(C)OC(=O)C=C(CC2NS(=O)(=O)OC3CCCCC23)O1` (configuration not stated), the Potency is reported as active: 2.51 µM.
In the case of `c1cncc(Nc2nc(-c3cccnc3)cs2)c1`, the Potency is reported as inconclusive [inhibitor, partial curve].
In the case of `COC(=O)c1ccc2nc(C(F)(F)F)[nH]c2c1`, the “activity change, negative = inhibition” value is reported as inactive: -10.2%.
For `Oc1ccc(COCc2ccccc2)c2cccnc12`, the Potency was active: 5.01 µM.
In the case of `Cc1ccccc1Oc1ncnc(N)c1[N+](=O)[O-]`, the “activity change, negative = inhibition” value is reported as inactive: 3.99%.
In the case of `CCCCC(=O)Nc1cc(OCC)c(NC(=O)c2ccccc2[N+](=O)[O-])cc1OCC`, the Potency is reported as inconclusive [inhibitor, full curve, poor fit].
For `O=C(COC(=O)C1(c2ccccc2F)CCCC1)N1CCN(C(=O)c2ccco2)CC1`, the “activity change, negative = inhibition” value was inactive: -3.97%.
For `CCc1nc(SCC(=O)c2ccccc2)c2ccccc2n1`, the Potency was inconclusive [inhibitor, partial curve].
With `CCOc1cc(-c2sc(Nc3cc(C)ccc3OC)n[n+]2-c2ccccc2)ccc1OC` the Potency was inconclusive [inhibitor, single point].
For `COC(=O)c1ccc(/C=N/n2c(C)nc3ccccc3c2=O)cc1`, the “activity change, negative = inhibition” value was inactive: 6.55%.
In the case of `COc1ccc(CN2CCN(C(C)C(=O)NC(C)c3ccc(F)cc3)CC2)cc1F` (configuration not stated), the “activity change, negative = inhibition” value is reported as inactive: -28.3%.
In the case of `C/C(=N\NC(=O)c1ccc2c(c1)OCO2)c1ccc(NC(=O)CCCC(=O)O)cc1`, the “activity change, negative = inhibition” value is reported as inactive: -5.57%.
With `COc1ccc(CN(C)C(=O)c2sccc2-c2ccccc2)c(OC)c1` the Potency was inconclusive [inhibitor, single point].
